Among all 310,000 compounds or so, about 14,000 (4.5%) showed an effect of 50% or more. Effects have a minus sign here. This is one part of the list.
The compounds below were run against human ether-à-go-go-related gene (hERG) potassium channel (human, UniProt Q12809) (assay: primary screen, population patch clamp on CHO cells stably expressing hERG).
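Note: peak tail current of the secondary pulse compared with the same well before compound.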

Sequence of human ether-à-go-go-related gene (hERG) potassium channel (Q12809 whole entry, looked up): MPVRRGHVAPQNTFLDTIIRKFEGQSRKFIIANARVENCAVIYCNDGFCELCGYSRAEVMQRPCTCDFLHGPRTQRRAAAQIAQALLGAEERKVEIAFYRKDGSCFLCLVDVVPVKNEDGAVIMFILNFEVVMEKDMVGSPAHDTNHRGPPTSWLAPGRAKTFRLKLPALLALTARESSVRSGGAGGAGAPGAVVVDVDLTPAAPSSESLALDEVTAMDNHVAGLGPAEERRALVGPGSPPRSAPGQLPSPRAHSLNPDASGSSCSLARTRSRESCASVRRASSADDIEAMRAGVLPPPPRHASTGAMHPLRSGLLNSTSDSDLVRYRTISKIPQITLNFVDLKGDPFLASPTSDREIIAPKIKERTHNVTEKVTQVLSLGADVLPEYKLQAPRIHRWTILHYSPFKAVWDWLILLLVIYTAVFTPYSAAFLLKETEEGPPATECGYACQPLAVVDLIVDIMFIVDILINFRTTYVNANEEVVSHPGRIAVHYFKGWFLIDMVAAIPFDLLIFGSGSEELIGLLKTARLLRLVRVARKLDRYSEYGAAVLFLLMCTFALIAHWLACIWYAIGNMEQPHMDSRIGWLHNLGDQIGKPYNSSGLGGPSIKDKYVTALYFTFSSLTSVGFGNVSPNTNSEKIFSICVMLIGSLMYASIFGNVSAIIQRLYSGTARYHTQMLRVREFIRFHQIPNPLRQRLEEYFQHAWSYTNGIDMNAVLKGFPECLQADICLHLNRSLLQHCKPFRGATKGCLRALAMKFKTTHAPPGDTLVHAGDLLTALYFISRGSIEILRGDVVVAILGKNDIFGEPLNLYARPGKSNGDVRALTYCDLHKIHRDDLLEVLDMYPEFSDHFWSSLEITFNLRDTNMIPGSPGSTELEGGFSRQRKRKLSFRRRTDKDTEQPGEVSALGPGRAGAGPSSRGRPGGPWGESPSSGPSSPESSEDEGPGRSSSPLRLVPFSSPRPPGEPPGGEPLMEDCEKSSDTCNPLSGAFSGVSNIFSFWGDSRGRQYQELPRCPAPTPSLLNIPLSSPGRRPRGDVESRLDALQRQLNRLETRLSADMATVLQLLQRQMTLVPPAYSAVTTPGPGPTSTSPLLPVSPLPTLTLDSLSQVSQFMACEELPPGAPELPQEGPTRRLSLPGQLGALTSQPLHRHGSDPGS

Compound	hERG current change (%, negative = inhibition) at 10uM [%]
COc1cccc(CN(C(=O)COc2ccc(Cl)cc2)C2CCS(=O)(=O)C2)c1 (centres unmarked)	-45.5
O=C(CSc1nc2ccccc2o1)Nc1nncs1	3.83
CCC(=O)N(c1ccc(F)cc1)C1C=CS(=O)(=O)C1 (centres unmarked)	7.02
CC1(C(=O)NCc2ccc(Cl)c(Cl)c2)Oc2ccccc2NC1=O (centres unmarked)	-1.97
Cc1ccc(-n2ncc3c(=O)n(Cc4ccccn4)cnc32)cc1C	-3.05
N#CC1(NC(=O)CSc2nnc(Cc3ccccc3)o2)CCCCC1	1.11
COc1ccc(NC(=S)NCCCc2ccccc2)cc1	-29.7
COc1ccc(-c2c[n+]3c4n2CCCCC4=C(c2ccc(Br)cc2)C3)cc1.[Br-]	-75.1
O=C1[C@@H]2C3C=CC(O3)[C@@H]2C(=O)N1c1ccccc1	11.6
CCOc1ccc(OCCOC(=O)CN(C)S(=O)(=O)c2ccc(NC(C)=O)cc2)cc1	-16.8
O=S(=O)(NCC(c1ccc2c(c1)OCO2)N1CCN(c2ccccc2)CC1)c1ccccc1 (centres unmarked)	5.41
CCOC(=O)c1c(-c2ccc(C)o2)csc1NC(=O)CSc1nnc(C)s1	6.97
CC12CC3CC(C)(C1)CC(C(=O)NCc1ccncc1)(C3)C2	9.2
CCOc1ccc(NC(=O)CSc2ccc(-c3cccnc3)nn2)cc1	-5.55
O=C(c1ccc(NS(=O)(=O)c2ccc(F)cc2)cc1)N1CCC1	16.4
Cc1ccc2cc(CCNC(=O)c3cccc([N+](=O)[O-])c3)c(=O)[nH]c2c1C	-19.7
CCc1ccc(N2CC(C(=O)OCC(=O)Nc3ccc([N+](=O)[O-])cc3)CC2=O)cc1 (centres unmarked)	-36.9
CCCNC(=O)N1[C@H]2CC[C@@H]1C(C(=O)OC)=C(c1ccc(S(C)(=O)=O)cc1)C2	12.3
CC(C)OC(=O)C[N+](C)(C)CCN1C(=O)C2C(c3ccccc3)C=CC(c3ccccc3)C2C1=O.[Br-] (centres unmarked)	18
CCn1c(=O)n(CC)c2cc(NC(=O)c3ccccc3Cl)ccc21	17.5
COc1ccc(CN2CCC(CO)(Cc3ccccc3C(F)(F)F)CC2)c(F)c1	-67.3
Cc1cc(C(=O)Nc2ccccc2C(=O)O)oc1C	14.6

Compound	hERG current change (%, negative = inhibition) at 10uM [%]
Cc1ccc(/C=N/NC(=S)NC2CCCCC2)o1	-4.48
CN(C)C1(c2nnnn2CCOC(=O)Nc2ccc(Cl)cc2)CCCCC1	-24.2
Cc1cc(C)c(CN2CCC(n3nccc3NC(=O)C3CCOC3)CC2)cc1C (centres unmarked)	-19
Cc1c(NC(=S)NC(NC(=O)C(C)(C)C)C(Cl)(Cl)Cl)c(=O)n(-c2ccccc2)n1C (centres unmarked)	-2.16
Cc1cccc(NC(=S)NNC(=O)c2sccc2C)c1	12.4
CCn1c(SCC(=O)NC2CC2)nnc1-c1ccncc1	14.8
Cc1ccccc1N1CCN(CCCN2C(=O)C3CCCCN3C2=O)CC1 (centres unmarked)	-9.54
CC(C)(C)NC(=O)C(=O)NNC(=O)c1ccco1	18.1
CC1CCN(CC(=O)Nc2nc(-c3ccccc3)cs2)CC1	-9.09
CN(Cc1cn[nH]c1-c1ccc(-c2ccccc2)cc1)CC1CCOCC1	-46.2
COc1cc2c(cc1OC)C(C)N(C(=O)Cn1ncc3c1-c1cc(C)ccc1OC3)CC2 (centres unmarked)	-35.7
NC(=O)CCSC(=S)N1CCOCC1	4.26
COc1cc(C2C3=C(CC(C)(C)CC3=O)N(C)C3=C2C(=O)CC(C)(C)C3)ccc1O	8.85
CCn1c2ccccc2c2cc(NC(=O)CSc3nnc(-c4cccc(OC)c4)n3N)ccc21	-14.6
Cc1cc(C)c2cc(CN(Cc3ccco3)C(=S)NCC3CCCO3)c(=O)[nH]c2c1 (centres unmarked)	-14.8
O=C(Cn1cc(C(F)(F)F)ccc1=O)N/N=C/c1ccccc1	33.6
O=C(NCCO)c1ccc(-c2nnc(Nc3ccc(O)cc3)c3ccccc23)cc1	16.8
Cc1cccc(OCc2nnc(SCC(=O)c3ccccc3)o2)c1	2.71
Cc1ccc(C)c(S(=O)(=O)N2CCN(C(=O)Cc3ccc(S(=O)(=O)N4CCOCC4)s3)CC2)c1	-0.423
COc1cccc(NC(=O)CCCn2nc(C)c3c(C)n(-c4ccccc4)nc3c2=O)c1	0.596
O=c1c2cc(NC(=S)NC3CCN(Cc4ccccc4)CC3)ccc2nc2n1CCCCC2	-10.4
CN1CCN(C(=O)/C(C#N)=C/c2ccc(F)cc2)CC1.Cl	6.63

Compound	hERG current change (%, negative = inhibition) at 10uM [%]
Cc1nnc(NC2CCCCC2)[nH]c1=O	13.4
Cc1ccc(NC(=S)Nc2cccc(S(=O)(=O)Nc3c(C)n(C)n(-c4ccccc4)c3=O)c2)cc1	15.3
Cc1cc(Br)ccc1SCC(=O)NCC(c1ccco1)N1CCCCC1 (centres unmarked)	-40
O=C1N/C(=C\c2ccsc2)C(=O)N1Cc1ccc(F)cc1	12.3
CCCCn1nnnc1NCc1cc(OC)c(OC)c(OC)c1	4.78
Cc1ccccc1C1CC(c2ccccc2)Nc2ncnn21 (centres unmarked)	-6.82
CC(C)c1ccc(S(=O)(=O)Nc2ccc(SC(F)F)cc2)cc1	15.2
C=CCC(C(=O)OC)(C(=O)OC)c1ccc(C(F)(F)F)cc1[N+](=O)[O-]	5.51
CCOc1ccccc1NC1=C(Cl)C(=O)N(c2ccccc2)C1=O	5.08
COc1ccc(CCNC(=O)CCNC(=O)N2CC(=O)Nc3ccccc32)cc1	-5.11
CCOC(=O)CN(C(=O)COc1nc(-c2ccccc2)cc(C)c1C#N)c1ccccc1C	4.99
O=C(O)/C=C/c1ccc2noc(-c3ccccc3)c2c1	9.03
CCCC(=O)Nn1cnc2c(c1=O)C1(CCCCC1)Cc1ccccc1-2	0.281
CC(C)c1nnc(NC(=O)C2CCCN2C(=O)Nc2ccccc2[N+](=O)[O-])s1 (centres unmarked)	-37.7
Cc1cccc(NC(=O)CSc2nnc(CCC(=O)Nc3ccc(C)c(Cl)c3)n2C)c1	5.44
O=C(CSc1nc2c(c(=O)[nH]1)CCCC2)Nc1ccc(Cl)cc1F	7.95
CC1(C)Oc2ccc(NC(=O)c3ccco3)cc2O1	-6.17
CCOC(=O)Cc1csc(NC(=O)CCc2ccccc2)n1	-2.42
Cc1cc(C(=O)NC2CC(C)(C)Cc3c2cnn3-c2cccc(F)c2)nn1C (centres unmarked)	-2.79
CCOC(=O)c1sc(NC(=O)c2ccc(S(=O)(=O)N(C)C)cc2)nc1C	18.8
OCC1(Cc2ccccc2)CCCN(Cc2cnn(-c3ccccc3)c2)C1 (centres unmarked)	-59.4
O=C(Cc1ccccc1)Nc1ccc(Br)c(Cl)c1	1.44

Compound	hERG current change (%, negative = inhibition) at 10uM [%]
COc1cc(-c2cc(N3C(=O)Nc4ccccc4N3O)n[nH]2)cc(OC)c1OC	3.55
O=C(C1=C(O)C(=O)N(Cc2ccco2)C1c1cccnc1)c1cc2ccccc2o1 (centres unmarked)	13.4
CCOc1cccc2cc(C(=O)N3CCc4ccccc43)c(=O)oc12	-2.43
Cc1nc2c(-c3ccc(F)cc3)c(C)nn2c(C)c1CCC(=O)N1CCOCC1	-53.3
O=C(O/N=C1\C(=O)N(c2ccccc2)c2ccccc21)C1CC1	15.7
O=C(COC(=O)CSc1ccc([N+](=O)[O-])cc1)NCCCc1ccccc1	4.5
Cc1ccc(NC(=O)C(C)c2ccc(-c3ccccc3)c(F)c2)cc1 (centres unmarked)	14.4
Cc1cc(C(=O)CN2CCC(C)CC2)c(C)n1-c1ccc(F)cc1	-25.5
O=C1Nc2ccccc2S/C1=C/c1cccs1	22.2
COc1ccc(OCC(=O)Nc2cccc(-c3nc4ccccc4[nH]3)c2)cc1	-55.9
CCOC(=O)Nc1ccc2c(COC(=O)CNS(=O)(=O)c3ccc(NC(C)=O)cc3)cc(=O)oc2c1	5.68
O=C(N/N=C/c1cccnc1)c1ccc(F)cc1	3.54
COc1ccc(NC(=O)CCC(=O)N/N=C/c2ccncc2)cc1	3.23
CSc1nnc(C)c(=O)n1COC(=O)c1ccc(S(=O)(=O)N2CCOCC2)cc1	-8.06
Cc1cc(C)nc(SCCn2c(N3CCOCC3)nc3c2c(=O)[nH]c(=O)n3C)n1	21.5
O=C(c1sc2ccccc2c1Cl)N1CCN(CCc2ccccn2)CC1	-60.5
COc1ccc(-c2nc3ccccc3c(=O)n2CCOc2cccc(C)c2C)cc1	15
COC(=O)CC/C(=N/Nc1ccc(Cl)c(Cl)c1)C(=O)OC	13.6
Cc1ccc(S(=O)(=O)N/N=C/c2ccccc2O)cc1[N+](=O)[O-]	2.59
CCN(CC)S(=O)(=O)N1CCC(C(=O)NCc2ccc(C)cc2)CC1	-16.9

— paper PMC4336329 (PLoS ONE, 2015)
